This note sets out measurements from patent US20090054323A1 (published 2009).

Substitutions are numbered along the chain they refer to.

Sequences and labels used below:
T1: human Ang-2 (human, UniProt O15123 19-496, limits assumed)
T1 construct: Sources differ by assay: R&D Systems 623-AN (mixture of 2 truncated versions) for initial screening; also called hAng-2; huAng-2
T1 sequence (looked up): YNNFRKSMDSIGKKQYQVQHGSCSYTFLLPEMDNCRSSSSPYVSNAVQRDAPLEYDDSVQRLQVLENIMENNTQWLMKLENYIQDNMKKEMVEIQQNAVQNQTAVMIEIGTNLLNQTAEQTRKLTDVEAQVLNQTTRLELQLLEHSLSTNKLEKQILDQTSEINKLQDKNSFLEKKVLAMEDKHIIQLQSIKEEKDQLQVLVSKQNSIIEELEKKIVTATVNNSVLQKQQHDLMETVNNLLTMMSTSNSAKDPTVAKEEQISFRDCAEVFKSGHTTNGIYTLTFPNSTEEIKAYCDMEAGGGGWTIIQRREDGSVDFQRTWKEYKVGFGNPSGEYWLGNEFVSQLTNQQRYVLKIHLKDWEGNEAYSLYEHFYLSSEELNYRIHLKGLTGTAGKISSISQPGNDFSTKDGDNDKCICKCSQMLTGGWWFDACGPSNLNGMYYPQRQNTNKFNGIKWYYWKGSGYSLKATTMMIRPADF

B1: L1-C1 (N) (Fc fusion)
chain: MGAQQKFKPLDELEQTLYEQWTLQQRLEGGGGG[human IgG1 Fc not written out]
B2: AC6-L1 (N) (Fc fusion)
chain: MGAQTNYKPLDELDATLYEHWILQHSLEGGGGG[human IgG1 Fc not written out]
B3: L1-1 (N) (Fc fusion)
chain: B2 chain with T5Q, W21F, L23F, Q24H, H25Y, S26T
B4: Con4-C5 (C) (Fc fusion)
chain: [human IgG1 Fc not written out]GGGGGAQAATQEECEWDPWTCEHMPRSLE
B5: Con4-20 (C) (Fc fusion)
chain: [human IgG1 Fc not written out]GGGGGAQQVIGRPCEWDPWTCEHLEGLLE
B6: Con4-28 (C) (Fc fusion)
chain: [human IgG1 Fc not written out]GGGGGAQAWGQEGCDWDPWTCEHMLPMLE
B7: Con4-9 (C) (Fc fusion)
chain: [human IgG1 Fc not written out]GGGGGAQGTSPSFCQWDPWTCSHMVQGLE
B8: Con4-43 (C) (Fc fusion)
chain: [human IgG1 Fc not written out]GGGGGAQSISHEECEWDPWTCEHMQVGLE
B9: Con4-37 (C) (Fc fusion)
chain: [human IgG1 Fc not written out]GGGGGAQLPGQEDCEWDPWTCEHMVRSLE
B10: AC2-Con4 (C) (Fc fusion)
chain: [human IgG1 Fc not written out]GGGGGAQFGWSHGCEWDPWTCEHMGSTLE
B11: Con4-11 (C) (Fc fusion)
chain: [human IgG1 Fc not written out]GGGGGAQQGMKMFCEWDPWTCAHIVYRLE
B12: Con4-41 (C) (Fc fusion)
chain: [human IgG1 Fc not written out]GGGGGAQNVRQEKCEWDPWTCEHMPVRLE
B13: Con4-18 (C) (Fc fusion)
chain: [human IgG1 Fc not written out]GGGGGAQWVNEVVCEWDPWTCNHWDTPLE
B14: Con4-8 (C) (Fc fusion)
chain: [human IgG1 Fc not written out]GGGGGAQSTIGDMCEWDPWTCAHMQVDLE
B15: Con4-10 (C) (Fc fusion)
chain: [human IgG1 Fc not written out]GGGGGAQTQGLHQCEWDPWTCKVLWPSLE
B16: Con4-C2 (C) (Fc fusion)
chain: [human IgG1 Fc not written out]GGGGGAQTTIGSMCQWDPWTCAHMQGGLE
B17: Con4-42 (C) (Fc fusion)
chain: [human IgG1 Fc not written out]GGGGGAQLRHQEGCEWDPWTCEHMFDWLE
B18: Con4-33 (C) (Fc fusion)
chain: [human IgG1 Fc not written out]GGGGGAQPMNQVECDWDPWTCEHMPRSLE
B19: Con4-16 (C) (Fc fusion)
chain: [human IgG1 Fc not written out]GGGGGAQAVGSQTCEWDPWTCAHLVEVLE
B20: Con4-46 (C) (Fc fusion)
chain: [human IgG1 Fc not written out]GGGGGAQQHWQEECEWDPWTCDHMPSKLE
B21: Con4-21 (C) (Fc fusion)
chain: [human IgG1 Fc not written out]GGGGGAQTKGKSVCQWDPWTCSHMQSGLE
B22: Con4-27 (C) (Fc fusion)
chain: [human IgG1 Fc not written out]GGGGGAQTWPQDKCEWDPWTCEHMGSTLE
B23: Con4-29 (C) (Fc fusion)
chain: [human IgG1 Fc not written out]GGGGGAQRTTQEKCEWDPWTCEHMESQLE
B24: Con4-25 (C) (Fc fusion)
chain: [human IgG1 Fc not written out]GGGGGAQRAPQEDCEWDPWTCAHMDIKLE
B25: Con4-1 (C) (Fc fusion)
chain: [human IgG1 Fc not written out]GGGGGAQVLGGQGCQWDPWTCSHLEDGLE
B26: Con4-38 (C) (Fc fusion)
chain: [human IgG1 Fc not written out]GGGGGAQPRLQEECVWDPWTCEHMPLRLE
B27: AC4-Con4 (C) (Fc fusion)
chain: [human IgG1 Fc not written out]GGGGGAQVLGGQGCEWDPWTCRLLQGWLE
B28: Con4-31 (C) (Fc fusion)
chain: [human IgG1 Fc not written out]GGGGGAQNRLQEVCEWDPWTCEHMENVLE
B29: Con4-35 (C) (Fc fusion)
chain: [human IgG1 Fc not written out]GGGGGAQVPRQKDCEWDPWTCEHMYVGLE
B30: Con4-C1 (C) (Fc fusion)
chain: [human IgG1 Fc not written out]GGGGGAQTTIGSMCEWDPWTCAHMQGGLE
B31: Con4-3 (C) (Fc fusion)
chain: [human IgG1 Fc not written out]GGGGGAQDKILEECQWDPWTCQFFYGALE
B32: Con4-34 (C) (Fc fusion)
chain: [human IgG1 Fc not written out]GGGGGAQVKTQEHCDWDPWTCEHMREWLE
B33: Con4-48 (C) (Fc fusion)
chain: [human IgG1 Fc not written out]GGGGGAQGHSQEECGWDPWTCEHMGTSLE
B34: Con4-45 (C) (Fc fusion)
chain: [human IgG1 Fc not written out]GGGGGAQWAQQEECAWDPWTCDHMVGLLE
B35: Con4-47 (C) (Fc fusion)
chain: [human IgG1 Fc not written out]GGGGGAQQTSQEDCVWDPWTCDHMVSSLE
B36: Con4-19 (C) (Fc fusion)
chain: [human IgG1 Fc not written out]GGGGGAQVVQVGMCQWDPWTCKHMRLQLE
B37: Con4-15 (C) (Fc fusion)
chain: [human IgG1 Fc not written out]GGGGGAQQWSWPPCEWDPWTCQTVWPSLE
B38: Con4-C4 (C) (Fc fusion)
chain: [human IgG1 Fc not written out]GGGGGAQTTIGSMCQWDPWTCEHMQGGLE
B39: Con4-32 (C) (Fc fusion)
chain: [human IgG1 Fc not written out]GGGGGAQKSTQDDCDWDPWTCEHMVGPLE
B40: Con4-39 (C) (Fc fusion)
chain: [human IgG1 Fc not written out]GGGGGAQPVNQEDCEWDPWTCEHMPPMLE
B41: Con4-23 (C) (Fc fusion)
chain: [human IgG1 Fc not written out]GGGGGAQTSQRVGCEWDPWTCQHLTYTLE
B42: Con4-50 (C) (Fc fusion)
chain: [human IgG1 Fc not written out]GGGGGAQHGQNMECEWDPWTCEHMFRYLE
B43: Con4-4 (C) (Fc fusion)
chain: [human IgG1 Fc not written out]GGGGGAQWYEQDACEWDPWTCEHMAEVLE
B44: Con4-17 (C) (Fc fusion)
chain: [human IgG1 Fc not written out]GGGGGAQGPRISTCQWDPWTCEHMDQLLE
B45: Con4-49 (C) (Fc fusion)
chain: [human IgG1 Fc not written out]GGGGGAQWAAQEECEWDPWTCEHMGRMLE
B46: Con4-22 (C) (Fc fusion)
chain: [human IgG1 Fc not written out]GGGGGAQVWRSQVCQWDPWTCNLGGDWLE

This assay concerns the target T1, human Ang-2. Kind of assay: neutralization ELISA vs Tie-2-Fc.
The molecule B1 returned an IC50 of 560 pM.

Regarding B2, the IC50 was found to be 30 pM.

Regarding B3, it took 80 pM to reach half-maximal inhibition (IC50).

The molecule B4 had an IC50 of 160 pM. Against the preceding molecule, the IC50 is about 2-fold higher.

Turning to B5, the IC50 is 480 pM.

In the case of B6, half-maximal inhibition (IC50) required 300 pM.

The molecule B7 displayed a half-inhibitory concentration (IC50) of 20100 pM.

Turning to B8, the IC50 is 180 pM.

B9 displayed an IC50 of 490 pM.

B10 registered an IC50 of 520 pM.

As to B11, half-maximal inhibition (IC50) was put at 9700 pM.

The molecule B12 returned an IC50 of 260 pM. This IC50 is about 37-fold lower than that of the molecule before.

The molecule B13 returned an IC50 of 4800 pM.

In turn, B14 had an IC50 of 1200 pM.

Take B15: half-maximal inhibition (IC50) required 86600 pM.

For B16, the IC50 was determined as 3750 pM.

B17 gave an IC50 of 170 pM. This IC50 is about 22-fold lower than that of the molecule before.

The molecule B18 had an IC50 of 520 pM.

B19 had an IC50 of 6940 pM.

For the molecule B20, half-maximal inhibition (IC50) was put at 260 pM.

B21 registered an IC50 of 3210 pM.

B22 showed a concentration for half-maximal inhibition (IC50) of 220 pM. This IC50 lies about 15-fold lower than the previous one.

With B23, the midpoint of inhibition, the IC50, lay at 410 pM.

As for B24, the IC50 came out at 310 pM.

B25 came in with an IC50 of 2470 pM. This IC50 lies about 8-fold higher than the previous one.

Molecule B26 showed an IC50 of 400 pM.

B27 registered an IC50 of 1540 pM.

In turn, B28 came in with an IC50 of 160 pM. This IC50 lies about 9.6-fold lower than the previous one.

B29 registered an IC50 of 180 pM.

Regarding B30, the IC50 came out at 2750 pM.

The molecule B31 displayed an IC50 of 282000 pM. This IC50 lies about 100-fold higher than the previous one.

As for B32, the IC50 amounted to 280 pM.

The molecule B33 came in with an IC50 of 260 pM.

In turn, B34 yielded an IC50 of 480 pM.

Molecule B35 registered an IC50 of 440 pM. This IC50 and that of the molecule before are within 1.5-fold of each other.

Consider B36, for which the IC50 was 5760 pM.

Take B37: the IC50 was determined as 15000 pM.

With B38, it took 9800 pM to reach half-maximal inhibition (IC50).

Molecule B39 gave an IC50 of 750 pM.

B40 returned an IC50 of 300 pM.

In turn, B41 had an IC50 of 9880 pM.

Molecule B42 came in with an IC50 of 380 pM.

In turn, B43 came in with an IC50 of 120 pM.

B44 showed an IC50 of 960 pM.

B45 gave an IC50 of 190 pM.

B46 returned an IC50 of 150000 pM.
